Measured values as given in PMC4336329 (PLoS ONE, 2015).
About 2,200 (0.71%) of roughly 310,000 compounds showed an effect of 50% or more. The effect is printed as a negative number. Some of the results follow.

Target: human ether-à-go-go-related gene (hERG) potassium channel (human, UniProt Q12809)
Experiment: primary screen, population patch clamp on CHO cells stably expressing hERG

Chain of human ether-à-go-go-related gene (hERG) potassium channel (Q12809 whole entry, looked up): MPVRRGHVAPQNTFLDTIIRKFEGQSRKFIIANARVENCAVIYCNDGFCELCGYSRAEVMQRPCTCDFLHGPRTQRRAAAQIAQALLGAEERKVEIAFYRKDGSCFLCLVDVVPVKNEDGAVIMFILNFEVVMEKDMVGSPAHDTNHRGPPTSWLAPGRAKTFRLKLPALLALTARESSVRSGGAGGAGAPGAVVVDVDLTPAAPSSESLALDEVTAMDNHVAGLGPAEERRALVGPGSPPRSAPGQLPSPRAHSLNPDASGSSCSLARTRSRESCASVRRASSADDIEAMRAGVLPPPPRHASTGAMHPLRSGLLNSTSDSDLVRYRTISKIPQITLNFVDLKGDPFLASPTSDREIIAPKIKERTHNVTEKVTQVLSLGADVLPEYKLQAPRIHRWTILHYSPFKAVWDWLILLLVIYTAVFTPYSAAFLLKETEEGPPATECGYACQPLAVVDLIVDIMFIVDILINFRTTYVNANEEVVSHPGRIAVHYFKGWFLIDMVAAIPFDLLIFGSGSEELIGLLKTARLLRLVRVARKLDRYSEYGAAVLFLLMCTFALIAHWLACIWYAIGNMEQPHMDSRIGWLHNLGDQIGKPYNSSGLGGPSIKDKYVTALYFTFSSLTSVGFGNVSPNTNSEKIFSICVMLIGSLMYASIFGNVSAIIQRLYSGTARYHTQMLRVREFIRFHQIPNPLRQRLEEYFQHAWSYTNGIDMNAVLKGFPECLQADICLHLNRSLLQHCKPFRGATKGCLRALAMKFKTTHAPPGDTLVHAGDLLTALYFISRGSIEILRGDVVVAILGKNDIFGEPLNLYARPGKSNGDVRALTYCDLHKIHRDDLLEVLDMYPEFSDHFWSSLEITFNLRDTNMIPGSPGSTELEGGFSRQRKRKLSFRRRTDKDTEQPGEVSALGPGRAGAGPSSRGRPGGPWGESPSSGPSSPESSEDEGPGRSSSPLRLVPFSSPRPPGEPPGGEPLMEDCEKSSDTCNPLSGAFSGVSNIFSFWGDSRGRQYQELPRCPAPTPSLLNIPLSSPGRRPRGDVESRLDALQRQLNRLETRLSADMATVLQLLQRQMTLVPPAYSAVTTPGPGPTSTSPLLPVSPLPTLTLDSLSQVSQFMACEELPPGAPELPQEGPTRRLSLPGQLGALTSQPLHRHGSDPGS

SMILES	hERG current change (%, negative = inhibition) at 1uM
O=C(N/N=C/C1CC2CCC1C2)C1CC1 (centres unmarked)	32.5%
CCN1C(=O)N(C)C(N(O)C(=O)NC)C1(C)C (centres unmarked)	0.825%
Cc1ccc(C(=O)N/C(=C\c2cccs2)C(=O)N2CCCCCC2)cc1	-19.3%
COc1ccc(C(=O)NCC(=O)Nc2ccccc2)cc1OC	19.7%
Cc1ccsc1C(=O)OCC(=O)N(C)c1c(N)n(Cc2ccccc2)c(=O)[nH]c1=O	34.6%
Cc1noc(C)c1CSCC(=O)Nc1cc(S(=O)(=O)N2CCOCC2)ccc1OC(C)C	-5.31%
O=C(O)c1ccc(-c2nnc(-c3cccc(Br)c3)o2)cc1	12.8%
O=P(N[C@@H](c1ccccc1)[C@@H]1C[C@H]1CO)(c1ccccc1)c1ccccc1	6.42%
COc1ccc(OC)c2[nH]c(=O)c(CCNS(=O)(=O)c3ccc(C)cc3)cc12	-15.5%
CC1(OC(=O)CCc2ccccc2)C(=O)C=C2C=C(c3ccc(C#N)cc3)N(CC3CC3)C=C2C1=O (centres unmarked)	0.927%
Cc1cc(N2CCN(C(=O)/C=C/C(=O)O)CC2)c2ccccc2n1	23%
O=C(CC1C(=O)NCCN1CC1CCCCC1)NCc1ccc(F)cc1 (centres unmarked)	-0.382%
Cc1cccc(C(=O)NCCC(=O)Nc2ccc(C#N)cc2)c1	18.4%
Cc1cccn2c(=O)nc(SCC(=O)N3CCCC3)nc12	-2.45%
COc1ccc(/C=C2\CCC(C3CCCC3)C2=O)cc1Cn1nc(C)cc1C (centres unmarked)	7.9%
CC(=O)NC(CC(=O)Nc1ccc2c(c1)OCCO2)c1ccccc1 (centres unmarked)	11.2%
Oc1cc(Cl)ccc1Oc1ccc(Cl)cc1Cl	8.1%
CCN(CC)c1ccc(CN2CC=C(c3ccc(F)cc3)CC2)cc1	3.12%
CCN(CC)S(=O)(=O)c1ccc(N2CCN(S(=O)(=O)c3ccccc3C#N)CC2)nc1	4.48%
COc1cc(-c2c(C#N)c(N)nc(SCc3ccncc3)c2C#N)cc(OC)c1OC	2.82%
Cc1cccc(Nc2ncnc3onc(-c4cccc(Cl)c4)c23)c1C	1.98%
Cc1ccc2nc(Cl)c(/C=N/NC(=O)CN3CCOCC3)cc2c1	7.61%

SMILES	hERG current change (%, negative = inhibition) at 1uM
O=C(CSCc1ccco1)c1ccc(Cl)s1	13.2%
CC(=O)Nc1ccc(C(=O)Cn2c3[n+](c4c(F)c(F)ccc42)CCCCC3)cc1.[Br-]	7.9%
O=C(c1cc2ncccn2n1)N1CCc2c([nH]c3ccccc23)C1c1ccccc1F (centres unmarked)	12.1%
CCCN(CCO)Cc1ccc2ccccc2c1	2.91%
CCOC(=O)c1ccc(NC(=S)N(CCCN2CCCCCC2)Cc2ccco2)cc1	-31.7%
O=C1C(NS(=O)(=O)c2ccc(Cl)cc2)=C(N2CCCCC2)C(=O)c2ccccc21	5.63%
CC1(C)NC(=O)N(CC(=O)OCC(=O)c2ccc(F)cc2)C1=O	-1.22%
CCC(=O)Nc1cccc(NC(=O)c2cccnc2)c1	11.6%
COc1ccc(CCNC(=O)COC(=O)CCC(=O)c2ccc(F)cc2)cc1	11.4%
COc1cccc(CC(=O)N(C)C2CCCN(Cc3ccccc3F)C2)c1 (centres unmarked)	8.16%
CC(C)=CCc1cc([C@@H]2COc3c(ccc4c3C=CC(C)(C)O4)C2)c(O)cc1O	4.34%
COc1ccc(CCNC(=O)COC(=O)/C=C/c2cccs2)cc1	22.4%
COC(=O)c1ccc(CSc2ncnc3c2nnn3-c2ccc(OC)cc2)o1	5.87%
Cc1cc(C)cc(NC(=O)[C@H](Cc2c[nH]c3ccccc23)NC(=O)[C@@H]2Cc3ccccc3CN2)c1	10.2%
O=C(c1cc(Cl)ccc1F)N1CCCC(Nc2ccc3c(c2)OCCO3)C1 (centres unmarked)	0.817%
CN(CC(=O)Nc1ccc(Cl)c(C(F)(F)F)c1)C(=O)CCNC(=O)c1ccco1	-4.26%
COc1cc(OC)c(C2N(c3cc(C)on3)C(=O)C3CCCN32)cc1OC (centres unmarked)	15.5%
CC(=O)OCC(OC(C)=O)C(OC(C)=O)C(OC(C)=O)C(=O)Nc1ccccc1 (centres unmarked)	12.1%
CCOC(=O)C1CCCN(C(=O)c2cn(C)c(=O)c3cc(OC)c(OC)cc23)C1 (centres unmarked)	10.2%
Cc1cccc(C)c1NC(=O)CSc1nc(C)c(CC(=O)c2ccc(Br)cc2)c(C)c1C#N	4.03%
Cc1ccccc1Nc1nc(N)nc(CN2CCN(C(=O)c3ccccc3)CC2)n1	-1.31%
CCc1ccc(NC(=O)N(C2CCC(C)CC2)C2CCN(C(C)=O)CC2)cc1 (centres unmarked)	7.35%
